In the supplement of paper PMC7826260:
The other results are listed elsewhere or left out. Viral Rep nickase domains cut single-stranded DNA in vitro at 3 µM enzyme and 37 °C for 1 h; the strands have 90 letters, of which the middle is given. Uncut reads are compared with the no-enzyme pool on a log2 scale; more negative means more cut, near 0 not cut, and no call is made. Because reads are shares of a total, they shift together; where an enzyme cuts many sequences, the uncut ones exceed 0.

system: T1, Rep nickase domain of Muscovy duck circovirus; assay: uncleaved DNA left, log2 of reads against the no-enzyme library (log2 ratio); higher = less cleavage (more negative = more Rep cleavage of the k-mer); sequences stand for … in CTCGTCCG…ACCGGAGA
T1 sequence (protein, residues 1-111, tag omitted): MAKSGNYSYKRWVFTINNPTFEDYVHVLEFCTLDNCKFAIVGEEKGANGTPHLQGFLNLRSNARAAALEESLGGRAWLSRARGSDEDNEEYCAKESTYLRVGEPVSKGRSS
Protocol: (§1)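 A pool of 90-nt single-stranded DNAs with seven random bases just before the constant AC of the nick site (name = the seven bases) was cut by 3 µM recombinant His6-SUMO-tagged Rep nickase domain (300 nM DNA, 50 mM HEPES pH 8.0, 50 mM NaCl, 1 mM MnCl2, 1 h, 37 °C, three replicates). Uncut DNA was amplified and sequenced.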

Sequence	uncleaved DNA left (log2)
GCGGCTC	-0.0372
ATTAAAT	-0.348
CTGGATG	0.13
AGCGCCA	-0.0434
ACAACCG	0.0278
TATCTGT	-0.015
CCGATAG	-0.0114
TCGTGGT	-0.162
CGCCAGC	0.0535
GACGCAC	-0.0544
GGAATCC	0.0828
ACCGCAA	-0.0309
TGGATAC	0.0286
ATGTAAT	-1.29
TTAAAAA	0.07
TGCTATC	-0.0622
AACCATG	0.039
CGGGATG	0.0321
ATCGGGT	0.0269
CTCTGGA	-0.0423

Sequence	uncleaved DNA left (log2)
TGGAGCG	0.11
GCGTCCT	-0.132
GCAAATT	0.0195
GGGAAAT	0.175
GGTCTCT	0.0689
CCAGGCT	0.0144
AGGGGAC	-0.0629
AATCATA	0.0727
CGGCGTC	-0.09
TTTAAGA	0.128
TCGTTTG	0.0298
CTTATGT	-0.00811
GCTCCCA	-0.177
CGCCCAA	0.211
CTTTTGC	0.0214
GATATAC	0.121
TGTTTCC	-0.0214
GGGCTAA	-0.00298
GTCATTT	-0.019
TAGGGAT	-0.00721

system: T2, Rep nickase domain of banana bunchy top virus; assay: as above
T2 sequence (protein, residues 1-94, tag omitted): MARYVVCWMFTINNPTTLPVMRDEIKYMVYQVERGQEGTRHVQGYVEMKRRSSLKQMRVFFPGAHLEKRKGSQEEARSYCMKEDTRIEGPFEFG
Protocol: as §1

Sequence	uncleaved DNA left (log2)
GCGGCTC	0.00985
ATTAAAT	-0.145
CTGGATG	-0.0699
AGCGCCA	0.109
ACAACCG	0.0977
TATCTGT	-0.0316
CCGATAG	-0.125
TCGTGGT	-0.142
CGCCAGC	-0.119
GACGCAC	0.00184
GGAATCC	0.117
ACCGCAA	-0.118
TGGATAC	0.0965
ATGTAAT	-0.812
TTAAAAA	0.0712
TGCTATC	-0.019
AACCATG	0.0484
CGGGATG	0.0307
ATCGGGT	0.0535
CTCTGGA	-0.184

Sequence	uncleaved DNA left (log2)
TGGAGCG	0.0176
GCGTCCT	-0.16
GCAAATT	-0.0683
GGGAAAT	0.213
GGTCTCT	0.0312
CCAGGCT	0.00896
AGGGGAC	-0.00955
AATCATA	-0.0222
CGGCGTC	-0.0341
TTTAAGA	0.0249
TCGTTTG	-0.0465
CTTATGT	-0.00711
GCTCCCA	0.0931
CGCCCAA	0.111
CTTTTGC	-0.151
GATATAC	-0.00576
TGTTTCC	-0.0606
GGGCTAA	0.102
GTCATTT	0.132
TAGGGAT	0.081

system: T3, Rep nickase domain of cabbage leaf curl virus; assay: as above
T3 sequence (protein, residues 1-116, tag omitted): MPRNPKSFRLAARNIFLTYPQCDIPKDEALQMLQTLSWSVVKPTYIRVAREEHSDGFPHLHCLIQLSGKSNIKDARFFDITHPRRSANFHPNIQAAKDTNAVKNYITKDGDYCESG
Protocol: as §1

Sequence	uncleaved DNA left (log2)
GCGGCTC	0.23
ATTAAAT	-0.0417
CTGGATG	-0.0842
AGCGCCA	0.16
ACAACCG	-0.611
TATCTGT	-0.0418
CCGATAG	-0.727
TCGTGGT	0.0029
CGCCAGC	0.195
GACGCAC	-0.152
GGAATCC	0.483
ACCGCAA	-0.338
TGGATAC	0.0599
ATGTAAT	-0.0299
TTAAAAA	0.152
TGCTATC	0.271
AACCATG	-0.521
CGGGATG	0.231
ATCGGGT	0.267
CTCTGGA	-0.0463

Sequence	uncleaved DNA left (log2)
TGGAGCG	-0.788
GCGTCCT	0.0254
GCAAATT	0.0244
GGGAAAT	0.968
GGTCTCT	0.359
CCAGGCT	0.11
AGGGGAC	0.702
AATCATA	-0.0985
CGGCGTC	-0.329
TTTAAGA	0.0535
TCGTTTG	-0.292
CTTATGT	-0.0633
GCTCCCA	0.0335
CGCCCAA	0.101
CTTTTGC	-0.859
GATATAC	0.264
TGTTTCC	0.308
GGGCTAA	0.756
GTCATTT	0.255
TAGGGAT	0.215

system: T4, Rep nickase domain of chickpea chlorotic dwarf virus; assay: as above
T4 sequence (protein, residues 1-124, tag omitted): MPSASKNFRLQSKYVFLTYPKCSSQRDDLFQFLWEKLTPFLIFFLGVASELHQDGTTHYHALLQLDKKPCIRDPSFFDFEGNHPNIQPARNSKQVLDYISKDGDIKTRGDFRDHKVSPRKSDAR
Protocol: as §1

Sequence	uncleaved DNA left (log2)
GCGGCTC	0.73
ATTAAAT	-0.567
CTGGATG	0.152
AGCGCCA	0.477
ACAACCG	0.0795
TATCTGT	-0.602
CCGATAG	-0.565
TCGTGGT	-0.253
CGCCAGC	0.524
GACGCAC	0.347
GGAATCC	1.31
ACCGCAA	-0.337
TGGATAC	0.578
ATGTAAT	-0.531
TTAAAAA	0.00478
TGCTATC	0.207
AACCATG	-0.436
CGGGATG	0.874
ATCGGGT	1.03
CTCTGGA	-0.025

Sequence	uncleaved DNA left (log2)
TGGAGCG	-0.154
GCGTCCT	-0.551
GCAAATT	-1.27
GGGAAAT	2.24
GGTCTCT	0.595
CCAGGCT	0.325
AGGGGAC	1.52
AATCATA	-2.39
CGGCGTC	-0.0699
TTTAAGA	-0.0576
TCGTTTG	-0.443
CTTATGT	-0.436
GCTCCCA	0.104
CGCCCAA	-0.0102
CTTTTGC	-0.681
GATATAC	0.429
TGTTTCC	0.374
GGGCTAA	1.83
GTCATTT	0.619
TAGGGAT	1.59

system: T5, Rep nickase domain of faba bean necrotic yellows virus; assay: as above
T5 sequence (protein, residues 1-98, tag omitted): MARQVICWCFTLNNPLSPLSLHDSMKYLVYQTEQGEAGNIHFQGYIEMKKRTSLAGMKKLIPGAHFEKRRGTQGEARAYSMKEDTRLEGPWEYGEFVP
Protocol: as §1

Sequence	uncleaved DNA left (log2)
GCGGCTC	-0.158
ATTAAAT	-0.12
CTGGATG	-0.0914
AGCGCCA	-0.0924
ACAACCG	0.107
TATCTGT	-0.0335
CCGATAG	-0.0109
TCGTGGT	-0.168
CGCCAGC	-0.0108
GACGCAC	-0.108
GGAATCC	0.0627
ACCGCAA	0.0529
TGGATAC	-0.0815
ATGTAAT	-0.899
TTAAAAA	0.0405
TGCTATC	-0.0231
AACCATG	0.096
CGGGATG	0.0084
ATCGGGT	0.0647
CTCTGGA	-0.198

Sequence	uncleaved DNA left (log2)
TGGAGCG	0.123
GCGTCCT	0.0312
GCAAATT	0.0663
GGGAAAT	0.133
GGTCTCT	0.0221
CCAGGCT	-0.0598
AGGGGAC	-0.0718
AATCATA	-0.06
CGGCGTC	-0.0459
TTTAAGA	0.00594
TCGTTTG	0.0526
CTTATGT	0.0151
GCTCCCA	-0.024
CGCCCAA	0.183
CTTTTGC	-0.107
GATATAC	-0.0417
TGTTTCC	-0.044
GGGCTAA	-0.0891
GTCATTT	0.00636
TAGGGAT	-0.0971
